Assay results from the RNAGym collection of RNA variant scans (doi:10.1093/nar/gkz1192).
The source gives no read counts; variants with many changes may rest on few reads.

B1: CPEB3 Ribozyme (parent)
chain: UAACAGGGGGCCACAGCAGAAGCGUUCACGUCGCAGCCCCUGUCAGAUUCUGGUGAAUCUGCGAAUUCUGCUGUAUAUCUC

Variants of: B1
Assay: self-cleavage, relative activity (ratio to wild type); higher = more cleavage; in vitro, sequencing
How it was run: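 Libraries of CPEB3 self-cleaving ribozyme mutants came from rounds of error-prone PCR and carried barcodes, which DNA sequencing matched to variants. In vitro transcription used T7 RNA polymerase at 37°C for 5 hours, with a further 15 min in DNase I before EDTA stopped the reaction; the ribozymes cleaved during both steps. The RNA was reverse transcribed with template switching and sequenced on Illumina. Relative activity is the cleaved/total read fraction of a variant divided by that of the unmutated ribozyme, averaged over three batches with at least 5 reads.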
UAACAGGGGGCCACAGCAGAAGCGCUCAAGUCGCAGCCCCUGACAGAUUCUGGCGAAUCUGCGAAUUCUGCUGUAUGUCUU [U25C C29A U43A U54C A77G C81U] gave a self-cleavage of 0.19.
UAACAGGGGGCCACAGCAGAAGCGCUCAUGUCGCAGCCCCUGUCAGUUUCUGGUGAAUCUGCGAAUUCUGCUGUAUACCUC [U25C C29U A47U U78C] showed a self-cleavage of 0.13.
UAACAGGGGGCCACAGCAGAAGCGCUCAGGUCGCGGCCCCUGUCCGAUUCUGGUGAAUCUGCGAAUUCUGCUGUAUAUCUC [U25C C29G A35G A45C] gave a self-cleavage of 0.18.
UAACAGGGGGCCACAGCAGAAGCGCUCACGUCGCAGACACUGUCAGGUUUUGGUGAAUCCGCGAAUUCUGCUGUAUAUCUC [U25C C37A C39A A47G C50U U60C] gave a self-cleavage of 0.12.
UAACAGGGGGCCACAGCAGAAGCGCUCACGUGGCAGCCCCUGUCAGAAUCUGGUGAAUCUGCGAAUUCUGCUGUAUAACUC [U25C C32G U48A U78A] showed a self-cleavage of 0.07.
Work on UAACAGGGGGCCACAGCAGAAGCGCUCACGUCGCAGCCCCUGUCAGAUUCUGGUGAAUCUGCGAGUUCUGCUGUAAAUCUC [U25C A65G U76A] yielded a self-cleavage of 0.34.
Work on UAACAGGGGGCCACAGCAGAAGCGCUCACGUUGCAGCACCUGUCAGAUCCUGGUGAAUCUGCGAAUUCUGAUGUAUAUCUC [U25C C32U C38A U49C C71A] yielded a self-cleavage of 0.05.
With UAACAGGGGGCCACAGCAGAAGCGCUCAUGUCGCAGCCCCUGUCAGAUUCUGGUGAAUCUGCGUAUUCUGCUGUAUGUCCC [U25C C29U A64U A77G U80C] the self-cleavage was 0.1.
Variant UAACAGGGGGCCACAGCAGAAGCGCUAACGUCGGAGCCCCUGUCAGAUUCUGGUGAAUCUGCGAAUUCUGCUGUAUAUCUC [U25C C27A C34G] has a self-cleavage of 0.22.
With UAACAGGGGGCCACAGCAGAAGCGCUCACGUCGAAGCCCCCGUCAGAUUCUGGUGAAUCUGCGAAUUCUGCUGUAGAUCUC [U25C C34A U41C U76G] the self-cleavage was 0.15.
UAACAGGGGGCCACAGCAGAAGCGCUCACGUCGCAGCCCCUGUCAGAUUCUGGUGAAUCUGCGAUUUCUGCUGUGUAUCUC [U25C A65U A75G] gave a self-cleavage of 0.12.
UAACAGGGGGCCACAGCAGAAGCGCUCACGUCGCAGCCCCUGUCAGAUUCUGGUGAAUCUGCGAUUUCUACUGUAUAUCUC [U25C A65U G70A] gave a self-cleavage of 0.09.
With UAACAGGGGGCCACAGCAGAAGCGCUUACGUCGCAGCCCCUGUCAGAUUCUGGUGAAUCAGCGAAUUCUGCUGUAUAUCUC [U25C C27U U60A] the self-cleavage was 0.16.
Variant UAACAGGGGGCCACAGCAGAAGCGCUCACGUUGCAGCCCCUGUCGGACUCUGGUGAAUCUGCGAAUUCUGCUGUAUAUCUC [U25C C32U A45G U48C] has a self-cleavage of 0.08.
UAACAGGGGGCCACAGCAGAAGCGCUGGCGUCGCAGCCCCUGUCAGAUUCUGGUGAAUCUGCGAAUUCUGCUAUAUACCUC [U25C C27G A28G G73A U78C] showed a self-cleavage of 0.32.
In the case of UAACAGGGGGCCACAGCAGAAGCGCUCACGUUGCGGCCCCUGUCAGAUUCUGGUGAAUCUGCGAAUUCUGCUGUAUAUCUC [U25C C32U A35G], the self-cleavage is reported as 0.39.
For UAACAGGGGGCCACAGCAGAAGCGCUCACGUCGUAGCCCCUGUCAGAUUCUGGAGAAUCUGCGAAUUCUGCAGUAUAUCUC [U25C C34U U54A U72A], the self-cleavage was 0.08.
In the case of UAACAGGGGGCCACAGCAGAAGCGCUCACGUCGUAGCCCCUGUCGGAUUCUGGUGAAUCUGCGAAUUCUGCUGUAUAUCUC [U25C C34U A45G], the self-cleavage is reported as 0.2.
Variant UAACAGGGGGCCACAGCAGAAGCGCUCACGUCGCAGACACUGUCAGACUCUGGUGAGUCUGCGAAUUCCGCUGUAUAUCUC [U25C C37A C39A U48C A57G U69C] has a self-cleavage of 0.03.
UAACAGGGGGCCACAGCAGAAGCGCUCACGUCGCAGCCCCUGUCAGAUUCUGGUGAAUCUGCGUAUUCUGCUGUAUACCUC [U25C A64U U78C] showed a self-cleavage of 0.33.
In the case of UAACAGGGGGCCACAGCAGAAGCGCUCACGUCGUAGCCUCUGUCAGAUUCCGGUGAAUCUGCGGAUUCUGCUGUAUAUCUC [U25C C34U C39U U51C A64G], the self-cleavage is reported as 0.08.
With UAACAGGGGGCCACAGCAGAAGCGCUCACGUUACAGCCCCUGUCAGAUUCUGGUGAAUCUGCCAAUUCUGCAGAAUAUCUC [U25C C32U G33A G63C U72A U74A] the self-cleavage was 0.07.
UAACAGGGGGCCACAGCAGAAGCGCUCACGUUGCAGCCCCUGUCAGAUUCUGGUGAAUCUGCGAAUUCUGCUGUACAUCUC [U25C C32U U76C] gave a self-cleavage of 0.14.
UAACAGGGGGCCACAGCAGAAGCGCUCACGUCGCAGCACCUGACAGAUUCUGGUGAAUCUGCGAAUUCUGCUGUAUAUCUC [U25C C38A U43A] showed a self-cleavage of 0.08.
For UAACAGGGGGCCACAGCAGAAGCGCUCACGUCGCAGCCCCUGUCAGAUUCUGGUGAAUCUGCGAGUUCUGCCGUAUACCUC [U25C A65G U72C U78C], the self-cleavage was 0.4.
Work on UAACAGGGGGCCACAGCAGAAGCGCUGACGUCGCAGGCCCUGUCUGAUUCUGGUGAAUCUGCGGAUUCUGCUGUAUAUCUC [U25C C27G C37G A45U A64G] yielded a self-cleavage of 0.14.
UAACAGGGGGCCACAGCAGAAGCGCUCACGUCGCAGUCCCUGUCAGAACCUGGUGAAUCUGCGAAUCCUGCUGUAUAUCUC [U25C C37U U48A U49C U67C] gave a self-cleavage of 0.05.
UAACAGGGGGCCACAGCAGAAGCGCUCAAGUCGCAGCCCCUGUCAGAUUCUGGUGAAUAUGCGAAUUCCGCUGUAUAACUC [U25C C29A C59A U69C U78A] gave a self-cleavage of 0.14.
For UAACAGGGGGCCACAGCAGAAGCGCUCACGUCGCAGCCCCUGUCAGAUUCUGGUGAAUCUGCGAAUUCUGCUGUGCAUCUC [U25C A75G U76C], the self-cleavage was 0.14.
Work on UAACAGGGGGCCACAGCAGAAGCGCUCAAGUCGCAGCCCCUGUCAGAUUCUGGUGAAUCUGCGAAUUCUGCUGUAUUUCCC [U25C C29A A77U U80C] yielded a self-cleavage of 0.12.
In the case of UAACAGGGGGCCACAGCAGAAGCGCUCACGUCGUAGCCCCAGUCAGAUCCUGGUGAAUCCGCGAAUUCUGCUGUAUAUCUC [U25C C34U U41A U49C U60C], the self-cleavage is reported as 0.1.
UAACAGGGGGCCACAGCAGAAGCGCUCAUGUCGCAGCCCCUGCCAGAUUCUGGUGAAUCUGCGAAUUCCGCUGUAUAUCUC [U25C C29U U43C U69C] gave a self-cleavage of 0.16.
Variant UAACAGGGGGCCACAGCAGAAGCGCUCAUGUCGCAGCCCCUGUCAGUUUCUGGUGAAUCUGCGAAUUCUGCUGUAUAUCUC [U25C C29U A47U] has a self-cleavage of 0.22.
UAACAGGGGGCCACAGCAGAAGCGCUUACGUCGCAGCCCCUGUCAGAUUCUGGUGGAUCUGCGAAUCCUGCUGUAUAUCUC [U25C C27U A56G U67C] gave a self-cleavage of 0.08.
